Results: PubChem BioAssay AID1346428 (National Center for Advancing Translational Sciences (NCATS), 2018)
Out of some 48,000 compounds screened, about 1,200 (2.5%) were called active. Another 2% or so got no clear call; they are omitted.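 How the source made its calls: active means activation of at least 60% and not above a set upper limit (about 1 call in 100 departs from these limits); inconclusive means activation of 40% to 60%, or above that upper limit; inactive means activation under 40%.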 The list shows a part of the results.

What follows are compounds tested against Probable G-protein coupled receptor 32 (Homo sapiens) (UniProt O75388) (assay: qHTS for Agonists of Human Resolvin D1 Receptor DRV1). Conditions: CHO-K1 GPR32 beta-arrestin PathHunter luminescence, 90 min; at 76.9 µM; active compounds read high; zero percent set by DMSO-only wells.
How it was run: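 CHO-K1 cells stably expressing ProLink-tagged GPR32 and Enzyme Activator-tagged beta-arrestin were seeded at 2,500 cells/well overnight, exposed to compounds for 90 min at 37 °C, then read by beta-Gal complementation chemiluminescence after 1 h detection reagent.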
Further: 0% is about no effect.

activation, inactive:
CCNC(=O)C1CCCN(c2nn3cc(-c4ccc(C)cc4)nc3s2)C1 (stereo not drawn) -5.02%, CC(C)c1ccc(CNCCSc2nnnn2-c2ccccc2)cc1 21.7%, CCOc1ccc(-n2nc3ccc(NC(=O)COc4ccccc4)cc3n2)cc1 -2.01%, Cc1cc(C)cc(NC(=O)C2CCN(c3nc4ccccc4nc3C(F)(F)F)CC2)c1 6.23%, CCc1ccc(NC(=O)Cn2c(=O)n(CCC(=O)NCCc3ccc(OC)c(OC)c3)c(=O)c3ccccc32)cc1 10.1%, CCC(C)S(=O)(=O)c1oc(-c2ccc(F)cc2)nc1S(=O)(=O)c1ccc(F)cc1 (stereo not drawn) 13.2%, CCOc1ccc(NC(=O)c2ccc3nc(C(C)C)oc3c2)cc1 -18.4%, COc1ccc(Cn2c(=O)c3ccccc3n3c(-c4ccc(C)cc4)nnc23)cc1 -13.6%, Cc1ccc(C)c(CN2C(=O)CSc3ccc(C(=O)NCc4ccccc4)cc32)c1 -10.7%, CCc1cccc(NC(=O)Cn2nc(C)c3sc4ccccc4c3c2=O)c1 -8.9%, Cc1ccc(OCc2cc(=O)n3cc(C)sc3n2)c(NC(=O)c2ccco2)c1 -14.4%, COc1ccc(NC(=O)c2cnc3sc(N4CCOCC4)nn3c2=O)c(OC)c1 -0.286%, COc1cc(C(=O)Nc2c(C(=O)Nc3ccccc3F)oc3ccccc23)cc(OC)c1OC -7.11%, Cc1ccc(C)c(NC(=O)Cn2cc(S(=O)(=O)NC(C)C)c(S(=O)(=O)NC(C)C)c2)c1 2.92%, CC(C)c1cc2c(cc1S(=O)(=O)O)[C@@]1(C)CCC[C@@](C)(C(=O)O)[C@@H]1CC2 0.0557%, CCCn1c(NCc2ccccc2F)nc2ccccc21 -4.27%, CCC(=O)N1c2ccc(S(=O)(=O)CCC(=O)N3CCN(c4ccc(F)cc4)CC3)cc2CC1C (stereo not drawn) 8.96%, COc1ccc2c(c1)CC(NC(=O)Nc1ccc(Br)c(C)c1)CO2 (stereo not drawn) 1.87%, O=C(NCc1cccc(F)c1)c1ccc2nc(CCc3ccccc3)oc2c1 20.6%, CCOC(=O)c1cc2c(=O)n3ccccc3nc2n(CC2CCCO2)c1=NC(=O)c1ccc(F)cc1 (stereo not drawn) -16.6%, COc1ccc(-c2nnc(SCC(=O)Oc3cc(C)ccc3C)o2)cc1 -8.54%, COc1ccc(C(=O)Nc2nonc2-c2ccc(OC)c(OC)c2)cc1Cl -5.41%, Cc1ccc(-c2nc(Cn3c(SCc4ccc(F)cc4)nc4cccnc43)c(C)o2)cc1 -10.2%, CCN(C(=O)c1cccn(Cc2cccc(Cl)c2)c1=O)c1ccccc1 -2.08%, CCCCCNC(=O)c1ccc2c(=O)n(CCc3ccccc3)c(=O)[nH]c2c1 -5.33%, CCOC(=O)N1CCc2c(sc(NCc3cccc(F)c3)c2C(=O)Nc2ccc(OCC)cc2)C1 -7.2%, CCSc1ncc(Cl)c(C(=O)Nc2ccc(S(=O)(=O)N3CCCCC3)cc2)n1 -2.65%, CCOc1ccc(NC(=O)Cn2c(=O)n(-c3cccc(OC)c3)c(=O)c3c4c(sc32)CCCC4)cc1 -9.52%, COc1ccc(Cl)cc1NS(=O)(=O)c1ccc2c(c1)NC(=O)CC(=O)N2 -5.11%, CCCCN(CCCC)CCNC(=O)c1cn(CC)c2ccc(S(=O)(=O)N(C)C3CCCCC3)cc2c1=O -21.8%, Cc1ccc(C)c(Cn2cc(S(=O)(=O)c3ccc(Cl)cc3)c(=O)c3cc(F)ccc32)c1 -9.54%, CCc1ccc(NC(=O)c2ccc3[nH]c(C)c(C)c3c2)cc1 -18.9%, CCN(Cc1ccccc1)C(=O)CN(c1ccc(OC)cc1)S(=O)(=O)c1c(C)nn(C)c1C -74.4%, CCOC(=O)C1CCN(C(=O)Cn2c(=O)oc3cc(S(=O)(=O)N4CCC(C)CC4)ccc32)CC1 -0.0627%, CC(=O)N1CCc2c(sc3c2c(=O)n(CCc2ccccc2)c(=O)n3Cc2ccc(Cl)cc2)C1 -5.81%, COCCNC(=O)Cn1c(=O)n(CCCCCC(=O)NCc2ccc3c(c2)OCO3)c(=O)c2sccc21 -8.19%, Cc1ccccc1NC(=O)CSc1nc2c(c(=O)n(C)c(=O)n2C)n1Cc1ccccc1F 29%, Cc1cc2c(cc1S(=O)(=O)N1CCCCC1)OCC(=O)N2 -21.2%, CCNc1nc(OC)nc(Oc2ccc(=O)[nH]n2)n1 -5.42%, COc1ccc(-c2nc(CSc3nncn4c3cc3sccc34)c(C)o2)cc1OC -10%, O=C(CN1C(=O)CCc2cc(S(=O)(=O)N3CCOCC3)ccc21)NCc1ccccc1 9.72%, CN1[C@@H]2CC[C@H]1CC(OC(=O)C(O)c1ccccc1)C2 (stereo partly drawn) -1.35%, CC(C)(C)c1ccc(S(=O)(=O)N2CCN(Cc3noc(CCC(=O)N4CCCCC4)n3)CC2)cc1 -4.36%, CCc1ccc(NC(=O)CSC2=Nc3ccccc3C3=NC(CCC(=O)NCc4ccco4)C(=O)N23)cc1 (stereo not drawn) -26.2%, CCCNC(=O)c1ccc2nc(CCc3ccccc3)oc2c1 -10.2%, Cc1cc(C)cc(S(=O)(=O)c2cn(C)c3cc(N4CCCC4)c(F)cc3c2=O)c1 -5.76%, Cc1ccc(-c2nc3sc(CCNC(=O)c4ccc(C)c(C)c4)c(C)n3n2)cc1 6.18%, CCc1ccccc1NC(=O)N(C)CCc1c(C)nn(C)c1C 1.29%, COc1ccc(C(=O)n2nc(-c3ccco3)nc2NCc2cccs2)cc1OC -30.6%, Cc1ccccc1-n1c(SCc2ccc(Cl)cc2)nc2[nH]ncc2c1=O -22.7%

activation, active:
COc1ccc(Cn2c(C(=O)O)c(CNCc3ccc(C)o3)c3ccc(OC)cc32)cc1 74.6%, COc1ccccc1OC(C)C(=O)N1CCC(c2nc3ccccc3s2)CC1 (stereo not drawn) 84.8%, CCOCCCNc1ncnc2c1cnn2-c1ccc(C)c(C)c1 89.3%
